Source: PubChem BioAssay (NCATS)
Where “and” joins values, the source holds several entries; their conditions need not be identical. Identical values can stand only once. The inconclusive results got no clear call from the source; some entries with a clear call stand among them for comparison. Potencies beside an inconclusive call are fits to weak or partial responses and may not hold up. Calls of active or inactive are those of the source. The call rests on the fitted dose curve; in most records, active means well fitted curve in the direction sought with a large enough effect; inconclusive means small, poorly fitted or top-dose-only effect, or another doubt; inactive means no such curve, though single readings can be large; an effect the other way counts as inactive or inconclusive. Starred links: 1 amine or outer side, 2 acyl side, 3 side chain; linkers in the order of their positions; H or OH if unused. Positions of bridges follow the written chain, without caps; N, C: chain ends. Non-standard residues stand in square brackets, D forms with d. Residues, ends and D or L forms follow the SMILES beside them. Chains are numbered I, II in the order given. Actinocin(9to1) = Cc1c2oc3c(C)ccc(C(=O)[*:1])c3nc-2c(C(=O)[*:2])c(N)c1=O; aThr = C[C@H](O)[C@H](N)C(=O)O; NMeV = CN[C@H](C(=O)O)C(C)C; Sar = CNCC(=O)O

assay: HepG2 cells viability qHTS for Zika virus inhibitors (AID 1347168); settings: Zika counter-screen; series mostly up to 45.9 µM
Method in brief: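 qHTS titration; 24-48 h compound exposure, 37 degrees C/5% CO2; DMEM, 4% FBS; CellTiter Glo ATP luminescence.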
On the % scale 0 is the no-effect control and ±100 the full control effect; potency means the concentration at half of the fitted maximal effect; tags describe the fitted curve by direction and shape.

SMILES	Potency
Oc1cc2ccccc2c2ccccc12	inconclusive: 67.6 µM [cytotoxic, single point]
Cc1c2oc3c(C)ccc(C(=O)N[C@@H]4C(=O)N[C@@H](C(C)C)C(=O)N5CCC[C@@H]5C(=O)N(C)CC(=O)N(C)[C@@H](C(C)C)C(=O)O[C@H]4C)c3nc-2c(C(=O)N[C@@H]2C(=O)N[C@@H](C(C)C)C(=O)N3CCC[C@@H]3C(=O)N(C)CC(=O)N(C)[C@@H](C(C)C)C(=O)O[C@H]2C)c(N)c1=O (I: [aThr]V[dP][Sar][NMeV] / II: [aThr]V[dP][Sar][NMeV]; ester I:1-I:C, II:1-II:C; linker I:N-II:N via Actinocin(9to1))	inactive
C[C@H]1O[C@@H](O[C@H]2[C@@H](O)C[C@H](O[C@H]3[C@@H](O)C[C@H](O[C@H]4CC[C@]5(C)C6C[C@@H](O)[C@]7(C)[C@@H](C8=CC(=O)OC8)CC[C@]7(O)C6CC[C@@H]5C4)O[C@@H]3C)O[C@@H]2C)C[C@H](O)[C@@H]1O (some centres not stated)	inconclusive: 0.147 µM [cytotoxic, full curve, poor fit]
O=C1c2cccc3c2[C@@H](CCC3)CN1[C@@H]1CN2CCC1CC2	inconclusive: 37 µM [cytotoxic, partial curve, poor fit]

assay: Tertiary RLuc qRT-PCR qHTS assay for Zika virus inhibitors (AID 1347169); settings: infected Vero cells, reporter luminescence, 48-72 h; series mostly up to 45.9 µM; further: nearly all actives have a fitted effect of over 55% in size; on activity change, negative = inhibition: top concentration of the series differs between compounds
Method in brief: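 Orthogonal cell-based readout: luminescence measured 1-1.5 hrs after adding live-cell Renilla substrate to Vero cells that had been infected with ZIKV-RLuc (MOI 1-2) post-compound, incubated 48-72 hrs at 37 degrees C.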

SMILES	activity change, negative = inhibition	Potency
COc1cc(C2Nc3ccccc3-c3nnc(SCc4ccc(Cl)cc4)nc3O2)ccc1OCC(=O)O (configuration not stated)	inactive: 41.7% [at 5.25 µM]	–
CCOC(=O)c1ccc(NC(=O)c2ccc3c(c2)CCN3S(=O)(=O)c2ccc(Cl)cc2)cc1	–	inconclusive: 35.5 µM [inhibitor, single point]
Cc1ccc(NC(=O)c2ccc3c(O)c(S(=O)(=O)c4ccc(Cl)cc4)c(=O)[nH]c3c2)cc1	inactive: 127% [at 1.74 µM]	–
Cc1ccc(NC(=O)CSc2ncccc2C(=O)Oc2ccccc2Cl)cc1Cl	–	inconclusive: 0.138 µM [inhibitor, full curve, poor fit]
Oc1cc2ccccc2c2ccccc12	–	active: 6.02 µM
CCOc1ccc(C2C(=O)N(C3CCCCC3)CC(=O)N2Cc2ccc(F)cc2)cc1OC (configuration not stated)	–	active: 8.29 µM
O=C(Nc1cccc(C(=O)OCc2cc(=O)n3c4c(sc3n2)CCCC4)c1)c1ccc(Cl)cc1	inactive: 12.8% [at 1.74 µM]	–
COC(=O)[C@H](Cc1ccc(OC)cc1)NC(=O)[C@H]1CN(S(=O)(=O)c2ccccc2)CCN1S(=O)(=O)c1ccccc1	–	inactive
Cc1c2oc3c(C)ccc(C(=O)N[C@@H]4C(=O)N[C@@H](C(C)C)C(=O)N5CCC[C@@H]5C(=O)N(C)CC(=O)N(C)[C@@H](C(C)C)C(=O)O[C@H]4C)c3nc-2c(C(=O)N[C@@H]2C(=O)N[C@@H](C(C)C)C(=O)N3CCC[C@@H]3C(=O)N(C)CC(=O)N(C)[C@@H](C(C)C)C(=O)O[C@H]2C)c(N)c1=O (I: [aThr]V[dP][Sar][NMeV] / II: [aThr]V[dP][Sar][NMeV]; ester I:1-I:C, II:1-II:C; linker I:N-II:N via Actinocin(9to1))	–	inconclusive: 0.37 µM [inhibitor, full curve]
O=C(COC(=O)c1cccc(NC(=O)c2ccc(Br)cc2)c1)c1ccc(Br)cc1	–	inconclusive: 22.4 µM [inhibitor, single point]
Cc1csc2nc(COC(=O)c3ccc(NC(=O)c4ccccc4Br)cc3)cc(=O)n12	–	inconclusive: 28.2 µM [inhibitor, single point]
O=C1c2cccc3c2[C@@H](CCC3)CN1[C@@H]1CN2CCC1CC2	–	inconclusive: 18.6 µM [inhibitor, partial curve, poor fit]
O=C(COc1ccccc1F)Nc1ccc(C(=O)OCc2cc(=O)n3nc(C4CC4)sc3n2)cc1	inactive: 31% [at 5.25 µM]	–
O=C(O)c1cc(-n2c(/C=C\c3ccc(F)cc3)nc3ccccc3c2=O)ccc1Cl	inactive: -2.91% [at 1.74 µM]	–
CC(NC(=O)C1CCN(S(=O)(=O)c2ccc3nc4c(c(C(=O)O)c3c2)CCCC4)CC1)c1ccccc1 (configuration not stated)	inactive: 23.1% [at 1.74 µM]	–
COCCOC(=O)c1c(C)n(S(=O)(=O)c2ccc(C)cc2)c2ccc(NS(=O)(=O)c3ccc(C)cc3)cc12	inactive: 36.1% [at 5.25 µM]	–

assay: Primary qHTS for small molecule stabilizers of the endoplasmic reticulum resident proteome: Secreted ER Calcium Modulated Protein (SERCaMP) assay (AID 1508630); settings: SH-SY5Y GLuc-SERCaMP (Gaussia luciferase released on ER calcium loss) secretion, thapsigargin, luminescence; activity change, negative = inhibition: at 38.4 µM (top of the series) unless noted
Method in brief: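 The SH-SY5Y reporter protocol was run at 3 concentrations up to 38.3 uM (primary) or 11 concentrations (follow-up): 16 h compound, 100 nM thapsigargin for 4 h, then extracellular luciferase luminescence.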

SMILES	Potency
CCCCOc1cc(CC2CNC(=O)N2)ccc1OC (configuration not stated)	inactive
Cc1cc2c(cc1Cl)N(C(=O)Nc1ccnc3ccccc13)CC2	inactive
CC1C(=O)N(C)C(=O)c2nc[nH]c21 (configuration not stated)	inconclusive: 8.91 µM [inhibitor, partial curve, poor fit]
COc1ccccc1N1CCN(CCN(C(=O)c2ccc(F)cc2)c2ccccn2)CC1	inconclusive: 22.4 µM [inhibitor, single point]
COc1cc2c(CCNC(C)=O)c[nH]c2cc1O	inconclusive: 25.1 µM [inhibitor, single point]
Cc1c2oc3c(C)ccc(C(=O)N[C@@H]4C(=O)N[C@@H](C(C)C)C(=O)N5CCC[C@@H]5C(=O)N(C)CC(=O)N(C)[C@@H](C(C)C)C(=O)O[C@H]4C)c3nc-2c(C(=O)N[C@@H]2C(=O)N[C@@H](C(C)C)C(=O)N3CCC[C@@H]3C(=O)N(C)CC(=O)N(C)[C@@H](C(C)C)C(=O)O[C@H]2C)c(N)c1=O (I: [aThr]V[dP][Sar][NMeV] / II: [aThr]V[dP][Sar][NMeV]; ester I:1-I:C, II:1-II:C; linker I:N-II:N via Actinocin(9to1))	inactive
CC(N)(Cc1ccc(O)c(O)c1)C(=O)O (configuration not stated)	inconclusive: 35.5 µM [inhibitor, partial curve, poor fit]
NC(=S)NCCC[C@H](N)C(=O)O	inactive
O=C(O)c1cc(=O)cc(C(=O)O)[nH]1	inconclusive: 31.6 µM [inhibitor, partial curve, poor fit]
CN(CC[C@@H](Oc1ccc(C(F)(F)F)cc1)c1ccccc1)CC(=O)O	inactive
Oc1cc2c(cc1O)C(c1ccccc1)CNCC2 (configuration not stated)	inconclusive: 10 µM [inhibitor, partial curve, poor fit] and inconclusive: 2.24 µM [inhibitor, full curve, poor fit]
CN1CCc2cc(O)c(O)cc2C(c2ccccc2)C1 (configuration not stated)	inconclusive: 10 µM [inhibitor, partial curve, poor fit]
